Experimental data published in paper PMC9333452.
Results are given in words; binding and its absence hold for the method and conditions named. Binding seen in cells or lysates may run through a third protein. Some results given as binding are weak or reduced against the parent protein; the word gives no strength. Sequences can lack the tags named with a protein.

By UniProt entry, the sequences of proteins in these tests, tags left out.
UniProt Q96SN8: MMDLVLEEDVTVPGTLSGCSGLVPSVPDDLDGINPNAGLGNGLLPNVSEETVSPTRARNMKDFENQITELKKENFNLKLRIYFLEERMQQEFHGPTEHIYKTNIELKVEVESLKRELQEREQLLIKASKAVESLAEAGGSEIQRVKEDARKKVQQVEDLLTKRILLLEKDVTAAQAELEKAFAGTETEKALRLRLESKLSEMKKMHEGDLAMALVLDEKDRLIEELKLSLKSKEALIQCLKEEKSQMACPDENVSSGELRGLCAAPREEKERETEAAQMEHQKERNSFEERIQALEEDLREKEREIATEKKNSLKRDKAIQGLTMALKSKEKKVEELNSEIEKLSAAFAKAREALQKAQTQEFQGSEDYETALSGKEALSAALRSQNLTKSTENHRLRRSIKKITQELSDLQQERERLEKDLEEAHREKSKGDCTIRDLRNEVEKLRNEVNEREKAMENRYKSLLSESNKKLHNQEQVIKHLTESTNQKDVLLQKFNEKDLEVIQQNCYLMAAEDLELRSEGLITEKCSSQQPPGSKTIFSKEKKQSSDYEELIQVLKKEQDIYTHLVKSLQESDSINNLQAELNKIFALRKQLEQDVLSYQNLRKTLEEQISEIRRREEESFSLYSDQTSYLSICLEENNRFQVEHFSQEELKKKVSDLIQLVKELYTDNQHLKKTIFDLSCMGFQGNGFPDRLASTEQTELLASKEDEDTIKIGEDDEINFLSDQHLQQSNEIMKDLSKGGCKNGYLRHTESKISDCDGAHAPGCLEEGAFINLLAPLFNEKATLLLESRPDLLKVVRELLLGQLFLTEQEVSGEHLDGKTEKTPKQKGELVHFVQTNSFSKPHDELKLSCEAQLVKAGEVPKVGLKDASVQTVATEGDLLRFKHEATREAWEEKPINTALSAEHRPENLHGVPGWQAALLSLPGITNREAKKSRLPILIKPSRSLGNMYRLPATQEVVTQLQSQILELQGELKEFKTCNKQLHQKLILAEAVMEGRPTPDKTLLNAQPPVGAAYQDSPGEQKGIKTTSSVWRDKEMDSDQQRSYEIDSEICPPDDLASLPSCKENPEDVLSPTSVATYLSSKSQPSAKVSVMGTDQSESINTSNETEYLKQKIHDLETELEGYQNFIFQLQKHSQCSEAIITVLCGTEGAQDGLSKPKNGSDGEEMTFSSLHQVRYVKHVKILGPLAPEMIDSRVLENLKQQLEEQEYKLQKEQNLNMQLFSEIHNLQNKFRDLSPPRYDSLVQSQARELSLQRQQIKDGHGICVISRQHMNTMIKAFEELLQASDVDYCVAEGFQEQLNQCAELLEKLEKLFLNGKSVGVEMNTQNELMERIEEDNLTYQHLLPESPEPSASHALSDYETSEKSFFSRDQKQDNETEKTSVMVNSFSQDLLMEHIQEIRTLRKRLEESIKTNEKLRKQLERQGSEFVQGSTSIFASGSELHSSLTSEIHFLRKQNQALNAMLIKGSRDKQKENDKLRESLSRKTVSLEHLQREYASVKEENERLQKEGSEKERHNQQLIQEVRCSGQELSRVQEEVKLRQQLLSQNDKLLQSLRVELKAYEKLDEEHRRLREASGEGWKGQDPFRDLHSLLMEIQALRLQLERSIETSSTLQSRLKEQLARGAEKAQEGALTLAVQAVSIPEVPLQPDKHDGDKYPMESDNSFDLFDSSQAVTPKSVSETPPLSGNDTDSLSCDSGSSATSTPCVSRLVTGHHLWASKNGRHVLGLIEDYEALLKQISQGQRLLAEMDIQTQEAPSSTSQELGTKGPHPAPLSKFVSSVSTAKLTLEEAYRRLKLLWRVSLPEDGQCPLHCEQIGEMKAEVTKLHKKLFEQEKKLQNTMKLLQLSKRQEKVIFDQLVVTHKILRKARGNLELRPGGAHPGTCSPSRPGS
UniProt P23258: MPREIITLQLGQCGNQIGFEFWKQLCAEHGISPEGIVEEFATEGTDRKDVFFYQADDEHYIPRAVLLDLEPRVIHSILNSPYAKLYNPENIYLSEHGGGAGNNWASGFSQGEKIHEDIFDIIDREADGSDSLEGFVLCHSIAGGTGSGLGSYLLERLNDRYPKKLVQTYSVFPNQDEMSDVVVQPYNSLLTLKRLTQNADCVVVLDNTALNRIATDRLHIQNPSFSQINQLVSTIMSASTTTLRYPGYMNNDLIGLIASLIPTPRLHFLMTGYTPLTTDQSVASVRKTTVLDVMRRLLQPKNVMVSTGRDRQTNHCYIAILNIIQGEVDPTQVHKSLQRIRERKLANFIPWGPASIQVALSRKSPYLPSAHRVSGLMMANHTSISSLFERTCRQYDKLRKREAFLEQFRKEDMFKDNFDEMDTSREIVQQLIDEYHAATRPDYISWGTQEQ
UniProt O94986: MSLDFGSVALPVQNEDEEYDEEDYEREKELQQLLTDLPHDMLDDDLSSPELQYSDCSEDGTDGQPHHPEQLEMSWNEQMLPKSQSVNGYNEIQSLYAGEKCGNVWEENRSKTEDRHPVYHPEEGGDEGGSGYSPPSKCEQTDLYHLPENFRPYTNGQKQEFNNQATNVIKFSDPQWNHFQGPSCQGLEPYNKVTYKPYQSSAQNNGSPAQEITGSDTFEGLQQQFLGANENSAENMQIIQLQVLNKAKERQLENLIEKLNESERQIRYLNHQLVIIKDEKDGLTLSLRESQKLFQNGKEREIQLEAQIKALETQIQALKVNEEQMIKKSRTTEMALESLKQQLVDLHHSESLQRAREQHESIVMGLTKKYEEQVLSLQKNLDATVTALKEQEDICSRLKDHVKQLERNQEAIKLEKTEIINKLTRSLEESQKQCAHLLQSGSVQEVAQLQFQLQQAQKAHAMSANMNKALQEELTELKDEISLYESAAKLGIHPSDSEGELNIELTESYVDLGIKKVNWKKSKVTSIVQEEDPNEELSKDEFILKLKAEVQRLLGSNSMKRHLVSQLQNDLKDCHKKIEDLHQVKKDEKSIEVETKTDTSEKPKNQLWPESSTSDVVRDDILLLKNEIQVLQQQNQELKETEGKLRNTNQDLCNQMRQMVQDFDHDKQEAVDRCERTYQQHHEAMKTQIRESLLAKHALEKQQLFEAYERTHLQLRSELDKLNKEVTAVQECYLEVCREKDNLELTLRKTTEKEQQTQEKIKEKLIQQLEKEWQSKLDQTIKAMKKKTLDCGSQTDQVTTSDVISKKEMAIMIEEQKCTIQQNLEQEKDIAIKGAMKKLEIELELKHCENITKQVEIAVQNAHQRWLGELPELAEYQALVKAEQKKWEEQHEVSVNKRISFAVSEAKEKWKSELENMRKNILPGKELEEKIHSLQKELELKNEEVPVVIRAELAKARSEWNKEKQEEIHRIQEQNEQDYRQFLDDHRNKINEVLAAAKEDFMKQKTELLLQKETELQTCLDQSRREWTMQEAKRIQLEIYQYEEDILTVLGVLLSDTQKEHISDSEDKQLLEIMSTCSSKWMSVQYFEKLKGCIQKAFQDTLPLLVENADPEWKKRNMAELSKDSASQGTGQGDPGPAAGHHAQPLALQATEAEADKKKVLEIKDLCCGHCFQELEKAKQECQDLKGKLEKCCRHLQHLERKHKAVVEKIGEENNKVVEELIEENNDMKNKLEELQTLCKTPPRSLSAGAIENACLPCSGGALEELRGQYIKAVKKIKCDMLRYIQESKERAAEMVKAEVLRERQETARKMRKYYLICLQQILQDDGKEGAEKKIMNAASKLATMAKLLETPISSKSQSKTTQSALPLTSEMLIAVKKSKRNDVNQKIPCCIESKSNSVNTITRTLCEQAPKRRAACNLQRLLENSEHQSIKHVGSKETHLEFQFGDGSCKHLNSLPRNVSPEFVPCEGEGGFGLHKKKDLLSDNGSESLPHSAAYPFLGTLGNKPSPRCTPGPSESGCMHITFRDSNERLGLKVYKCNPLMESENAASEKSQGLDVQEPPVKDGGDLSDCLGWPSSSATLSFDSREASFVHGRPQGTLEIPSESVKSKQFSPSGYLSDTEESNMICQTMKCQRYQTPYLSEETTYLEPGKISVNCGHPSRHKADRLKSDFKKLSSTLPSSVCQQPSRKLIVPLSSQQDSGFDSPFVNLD
UniProt Q8TEP8: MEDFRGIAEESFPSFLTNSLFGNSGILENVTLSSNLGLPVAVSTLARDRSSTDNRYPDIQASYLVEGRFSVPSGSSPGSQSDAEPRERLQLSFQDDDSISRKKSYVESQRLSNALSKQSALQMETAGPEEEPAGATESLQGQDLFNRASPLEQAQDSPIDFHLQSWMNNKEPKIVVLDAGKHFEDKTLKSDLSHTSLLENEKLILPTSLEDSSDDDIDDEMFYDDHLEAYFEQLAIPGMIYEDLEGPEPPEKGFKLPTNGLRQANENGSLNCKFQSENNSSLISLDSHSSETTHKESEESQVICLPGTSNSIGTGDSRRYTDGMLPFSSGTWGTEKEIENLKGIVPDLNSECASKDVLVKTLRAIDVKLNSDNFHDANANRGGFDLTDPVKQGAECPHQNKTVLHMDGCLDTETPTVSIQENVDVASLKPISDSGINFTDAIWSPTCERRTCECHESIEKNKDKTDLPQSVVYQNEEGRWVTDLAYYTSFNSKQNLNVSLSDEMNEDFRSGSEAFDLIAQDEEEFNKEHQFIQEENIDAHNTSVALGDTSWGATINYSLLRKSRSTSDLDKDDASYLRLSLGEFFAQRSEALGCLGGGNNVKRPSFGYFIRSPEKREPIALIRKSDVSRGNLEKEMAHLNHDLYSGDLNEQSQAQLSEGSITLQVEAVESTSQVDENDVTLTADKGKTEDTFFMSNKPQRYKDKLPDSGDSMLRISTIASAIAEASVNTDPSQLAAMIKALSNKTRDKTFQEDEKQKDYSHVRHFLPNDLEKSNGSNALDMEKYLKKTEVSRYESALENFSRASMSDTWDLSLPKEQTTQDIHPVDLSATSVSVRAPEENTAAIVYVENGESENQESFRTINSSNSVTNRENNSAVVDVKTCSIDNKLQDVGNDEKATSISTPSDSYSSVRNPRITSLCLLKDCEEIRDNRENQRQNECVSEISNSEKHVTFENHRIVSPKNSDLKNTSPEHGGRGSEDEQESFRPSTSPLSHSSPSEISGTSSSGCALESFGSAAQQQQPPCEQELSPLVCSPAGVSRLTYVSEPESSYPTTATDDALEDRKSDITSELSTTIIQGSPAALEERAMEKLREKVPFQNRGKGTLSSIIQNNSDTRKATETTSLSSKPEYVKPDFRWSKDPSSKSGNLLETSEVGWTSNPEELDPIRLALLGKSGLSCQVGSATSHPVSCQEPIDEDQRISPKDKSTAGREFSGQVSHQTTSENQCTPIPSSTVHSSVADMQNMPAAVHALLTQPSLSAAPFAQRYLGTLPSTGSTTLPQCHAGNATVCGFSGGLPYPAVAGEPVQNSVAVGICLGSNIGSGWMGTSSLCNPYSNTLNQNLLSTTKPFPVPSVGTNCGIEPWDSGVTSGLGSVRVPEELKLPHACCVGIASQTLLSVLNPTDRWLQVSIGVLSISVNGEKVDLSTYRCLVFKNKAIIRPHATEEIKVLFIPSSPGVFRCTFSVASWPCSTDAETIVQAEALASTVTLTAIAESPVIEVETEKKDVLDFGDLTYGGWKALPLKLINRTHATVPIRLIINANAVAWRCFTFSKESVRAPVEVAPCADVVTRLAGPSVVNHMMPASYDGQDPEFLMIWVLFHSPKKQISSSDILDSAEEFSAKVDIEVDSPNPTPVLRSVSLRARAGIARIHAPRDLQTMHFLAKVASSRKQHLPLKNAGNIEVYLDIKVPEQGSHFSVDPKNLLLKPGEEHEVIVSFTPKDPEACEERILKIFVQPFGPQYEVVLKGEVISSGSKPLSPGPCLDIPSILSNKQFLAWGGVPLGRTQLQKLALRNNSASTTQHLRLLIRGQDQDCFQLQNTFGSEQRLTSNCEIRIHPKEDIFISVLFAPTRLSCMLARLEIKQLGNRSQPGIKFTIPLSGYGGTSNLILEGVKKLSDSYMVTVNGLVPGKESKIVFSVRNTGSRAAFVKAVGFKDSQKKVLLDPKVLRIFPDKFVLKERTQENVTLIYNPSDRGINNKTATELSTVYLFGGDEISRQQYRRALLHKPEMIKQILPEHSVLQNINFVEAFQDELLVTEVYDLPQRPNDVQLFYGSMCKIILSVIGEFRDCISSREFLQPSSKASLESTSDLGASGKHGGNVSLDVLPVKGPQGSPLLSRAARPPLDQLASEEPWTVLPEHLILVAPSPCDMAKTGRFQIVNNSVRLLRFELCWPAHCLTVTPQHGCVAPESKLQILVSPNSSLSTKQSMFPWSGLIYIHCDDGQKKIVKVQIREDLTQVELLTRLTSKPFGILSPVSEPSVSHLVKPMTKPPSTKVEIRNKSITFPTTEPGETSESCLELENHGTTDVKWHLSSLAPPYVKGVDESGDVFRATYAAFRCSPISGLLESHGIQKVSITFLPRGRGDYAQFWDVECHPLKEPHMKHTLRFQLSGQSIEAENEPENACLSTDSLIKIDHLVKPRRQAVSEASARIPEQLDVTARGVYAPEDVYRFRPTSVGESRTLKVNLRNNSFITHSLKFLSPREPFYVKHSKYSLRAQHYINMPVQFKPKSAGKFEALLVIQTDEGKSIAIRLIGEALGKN

Molecular target: T1, Flag-miniTurbo-CCDC66 (UniProt A2RUB6)
T1 sequence: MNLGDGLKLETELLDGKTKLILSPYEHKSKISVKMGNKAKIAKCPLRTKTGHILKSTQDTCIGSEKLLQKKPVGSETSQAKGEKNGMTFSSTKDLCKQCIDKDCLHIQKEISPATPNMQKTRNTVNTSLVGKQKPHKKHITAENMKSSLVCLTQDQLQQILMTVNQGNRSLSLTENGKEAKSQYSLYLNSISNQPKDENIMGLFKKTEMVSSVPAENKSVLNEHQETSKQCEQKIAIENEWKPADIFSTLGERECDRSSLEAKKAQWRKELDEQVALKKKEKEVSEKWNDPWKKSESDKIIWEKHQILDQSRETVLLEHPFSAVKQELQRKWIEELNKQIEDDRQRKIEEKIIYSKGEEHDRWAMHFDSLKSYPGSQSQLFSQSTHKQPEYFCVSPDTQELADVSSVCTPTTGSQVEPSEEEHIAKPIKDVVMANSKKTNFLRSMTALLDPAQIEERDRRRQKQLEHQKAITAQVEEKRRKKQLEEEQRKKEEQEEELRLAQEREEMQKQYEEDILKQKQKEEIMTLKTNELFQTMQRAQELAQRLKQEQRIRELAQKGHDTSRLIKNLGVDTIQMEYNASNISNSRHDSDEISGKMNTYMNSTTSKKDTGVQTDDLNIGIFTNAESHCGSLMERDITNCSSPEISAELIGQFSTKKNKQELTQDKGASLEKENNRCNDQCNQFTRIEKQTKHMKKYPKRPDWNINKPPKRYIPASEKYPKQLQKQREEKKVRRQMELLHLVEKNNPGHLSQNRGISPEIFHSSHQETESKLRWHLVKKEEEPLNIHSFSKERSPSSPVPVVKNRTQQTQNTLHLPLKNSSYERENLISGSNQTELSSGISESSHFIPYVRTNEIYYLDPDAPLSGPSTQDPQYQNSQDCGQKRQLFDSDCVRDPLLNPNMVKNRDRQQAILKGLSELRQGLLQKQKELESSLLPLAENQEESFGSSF
Assay: co-IP; HEK293T cells co-transfected; lysed about 48 h later in 50 mM HEPES pH 8, 100 mM KCl, 2 mM EDTA, 10% glycerol, 0.1% NP-40; anti-FLAG M2 agarose beads overnight at 4°C; input and eluates immunoblotted

## myc-BirA*-CDK5RAP2 (from UniProt Q96SN8 1-1893)
  binding: binds

## Ruby-Gamma-tubulin (from UniProt P23258 1-451)
  binding: binds

## myc-BirA*-Cep152 (from UniProt O94986 1-1710)
  binding: binds

## myc-BirA*-Cep192 (from UniProt Q8TEP8 1-2537)
  binding: binds

B1: GFP-Cep55 (protein, UniProt Q53EZ4 1-464)
chain: MSSRSTKDLIKSKWGSKPSNSKSETTLEKLKGEIAHLKTSVDEITSGKGKLTDKERHRLLEKIRVLEAEKEKNAYQLTEKDKEIQRLRDQLKARYSTTTLLEQLEETTREGERREQVLKALSEEKDVLKQQLSAATSRIAELESKTNTLRLSQTVAPNCFNSSINNIHEMEIQLKDALEKNQQWLVYDQQREVYVKGLLAKIFELEKKTETAAHSLPQQTKKPESEGYLQEEKQKCYNDLLASAKKDLEVERQTITQLSFELSEFRRKYEETQKEVHNLNQLLYSQRRADVQHLEDDRHKTEKIQKLREENDIARGKLEEEKKRSEELLSQVQFLYTSLLKQQEEQTRVALLEQQMQACTLDFENEKLDRQHVQHQLHVILKELRKARNQITQLESLKQLHEFAITEPLVTFQGETENREKVAASPKSPTAALNESLVECPKCNIQYPATEHRDLLVHVEYCSK
  binding: no binding
